The campaign covered roughly 45,000 compounds. About 65 (0.1%) were called active. Calls come from the whole dose curve; as a rule, active = well fitted activation curve with a large enough effect; inconclusive = small, poorly fitted or top-dose-only effect; inactive = no such curve, though single readings can be large or run the other way. The list shows a part of the results.
What follows are molecules tested against Galactocerebrosidase (Homo sapiens) (UniProt P54803) (assay: A Novel Cell-Based Assay to Identify Small Molecules for B -Galactocerebrosidase). Details: 145M-Twi-hGALC-G270D cells (Twitcher mouse brain line with human GALC G270D), HMU-beta-Gal fluorescence, 48 h; series mostly up to 57.5 µM; activation: at the top concentration.
Chain of UniProt P54803 (P54803 whole entry, looked up): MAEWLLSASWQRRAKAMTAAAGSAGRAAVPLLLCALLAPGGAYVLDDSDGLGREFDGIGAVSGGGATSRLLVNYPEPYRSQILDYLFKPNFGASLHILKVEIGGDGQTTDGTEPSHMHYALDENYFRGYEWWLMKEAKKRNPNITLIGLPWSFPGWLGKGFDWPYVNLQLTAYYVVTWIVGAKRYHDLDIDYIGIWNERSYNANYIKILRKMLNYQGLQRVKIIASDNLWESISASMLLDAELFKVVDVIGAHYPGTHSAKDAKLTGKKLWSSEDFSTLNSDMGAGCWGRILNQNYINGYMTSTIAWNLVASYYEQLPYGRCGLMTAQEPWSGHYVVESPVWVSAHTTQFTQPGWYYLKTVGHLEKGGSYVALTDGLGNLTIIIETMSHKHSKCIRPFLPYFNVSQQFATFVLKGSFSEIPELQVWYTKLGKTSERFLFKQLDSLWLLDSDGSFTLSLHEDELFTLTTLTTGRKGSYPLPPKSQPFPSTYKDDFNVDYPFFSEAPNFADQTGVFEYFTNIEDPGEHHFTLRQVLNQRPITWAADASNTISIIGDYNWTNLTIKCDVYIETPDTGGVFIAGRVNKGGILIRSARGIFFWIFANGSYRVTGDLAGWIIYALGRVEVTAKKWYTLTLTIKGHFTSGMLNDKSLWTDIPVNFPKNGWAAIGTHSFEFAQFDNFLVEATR
How it was run: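 Fluorogenic HMU-b-Gal hydrolysis (0.1 mM final, pH 5.2 citrate-phosphate with 1 mg/mL sodium taurocholate; carbonate stop buffer) measures mutant GALC activity after compound treatment of live 145M-Twi Twitcher brain cells stably carrying human GALC-G270D, with wild-type GALC line alongside; activation sought.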
Note: 0% is about no effect; nearly all actives have a fitted effect of over 65% in size.

Row | Structure (SMILES) | activation
1 | O=[N+]([O-])c1ccc(O)c(-c2ccnc3cc(-c4ccccc4)nn23)c1 | inactive: -5.58%
2 | COCCCNC(=O)c1ccc(Cn2c(=O)c3cccn3c3cccnc32)cc1 | inactive: -34.1%
3 | Cc1nn(CC(=O)NCc2ccc(N(C)C)cc2)c(=O)c2nn(-c3ccccc3)c(C)c12 | inactive: -16%
4 | CC(C)CC(=O)OCc1cc(=O)n2nc(C3CCCCC3)sc2n1 | inactive: -6.59%
5 | COc1ccccc1CNC(=O)C1CCN(c2nnc(C)c3c(C)n(-c4ccccc4)nc23)CC1 | inactive: -2.82%
6 | Cc1ccc2c(=O)cc(C(=O)Nc3c(C(=O)c4ccc(F)cc4)oc4ccccc34)oc2c1C | inactive: -5.05%
7 | CSc1nn(CC(=O)Nc2cc(C)ccc2C)c(N)c1S(=O)(=O)c1ccccc1 | inactive: 1.41%
8 | O=C(Nc1nnc(S(=O)(=O)N2CCCCCC2)s1)c1ccc(Cl)cc1 | inactive: -9.95%
9 | COc1ccc(NC(=O)CC(C)S(=O)(=O)c2cc3c(cc2C)NC(=O)CO3)cc1OC (configuration not stated) | inactive: -4.15%
10 | COc1ccc(Nc2c(-c3ccsc3)nc3nc(C)cc(C)n23)cc1 | inactive: -15.2%
11 | COc1ccc(CCNC(=O)c2c(C)oc3ncn(CC(C)C)c(=O)c23)c(OC)c1 | inactive: -11.8%
12 | Cc1ccc(NC(=O)CN2C(=O)CC(c3ccc(C)c(C)c3)=Nc3ccccc32)cc1 | inactive: -11.8%
13 | CCOC(=O)Cn1c(=O)oc2cc(S(=O)(=O)N3CCN(c4ccc(F)cc4)CC3)ccc21 | inactive: -0.0016%
14 | Cc1cccc(C)c1OC(=O)CSc1nnc(-c2ccc3c(c2)OCO3)o1 | inactive: 3.98%
15 | CCC(CC)C(=O)Nc1cc(-c2nc3cccnc3s2)ccc1C | inactive: -8.57%
16 | CCCOc1cccc(C(=O)Nc2cccc(NC(=O)c3ccc(Cl)cc3Cl)c2)c1 | inactive: -8.6%
17 | Cc1ccc(C(C)C)c(OCC(=O)Nc2ccc(O)c(-c3nc4cc(Cl)ccc4o3)c2)c1 | inactive: -12.4%
18 | COC(=O)c1c(C)sc(-c2c(-c3ccc(OC)c(F)c3)[nH]c3c2c(=O)n(C)c(=O)n3C)c1O | inactive: -9.87%
19 | CCSc1nc2ccccc2c(OCc2cc(C(=O)OC)ccc2OC)c1C(=O)OC | inactive: 5%
20 | CC(C)C(=O)Nc1nnc(S(=O)(=O)N2c3ccccc3CC2C)s1 (configuration not stated) | inactive: -9.46%
21 | COc1ccc(CNC(=O)CN(C)S(=O)(=O)c2ccc3c(c2)c(=O)n(C)c(=O)n3C)cc1 | inactive: -4.66%
22 | COc1cccc(C(c2sc3nc(-c4ccco4)nn3c2O)N2CCN(C)CC2)c1 (configuration not stated) | inactive: -11%
23 | COc1ccc(C(=O)Oc2cc(-c3ccc(OC)c(OC)c3)cc(=O)c3c(C)oc(C)c23)cc1 | inactive: -19.8%
24 | CCS(=O)(=O)Nc1ccc(-c2cn3c(C)csc3n2)cc1 | inactive: -24.8%
25 | CCOC(=O)c1c(-c2ccccc2)oc2ccc(OCc3cccc(Br)c3)cc12 | inactive: -13.6%

Row | Structure (SMILES) | activation
26 | CCN1C(=O)c2ccccc2S(=O)c2ccc(C(=O)NCc3ccc(Cl)cc3)cc21 (configuration not stated) | inactive: -8.29%
27 | CCN(c1cccc(C)c1)S(=O)(=O)c1c(C)nc2sc(C)cn2c1=O | inactive: -13.7%
28 | O=C1CCSC2(C(=O)N(Cc3ccc(F)cc3)c3ccccc32)N1c1cccc(F)c1 (configuration not stated) | inactive: -1.52%
29 | O=C(Cn1cc(C(=O)c2cccs2)c2ccccc21)Nc1ccc(Br)cc1 | inactive: -33.3%
30 | CCS(=O)(=O)c1nc(S(=O)(=O)c2ccc(C)cc2)c(NC)s1 | inactive: -18.9%
31 | Cc1cccc(C(=O)N2CCc3cc(CNS(=O)(=O)c4ccc(F)c(Cl)c4)ccc32)c1 | inactive: -3.07%
32 | CCc1ccccc1NC(=O)Cn1ccn(Cc2ccccc2)c(=O)c1=O | inactive: -3.2%
33 | COc1ccc(NC(=O)CCc2nnc3n(Cc4ccc(C)cc4)c(=O)c4ccccc4n23)cc1 | inactive: -5.84%
34 | COc1cccc(CNCCCSc2nnnn2C)c1OC | inactive: -13.6%
35 | CC1CCCCN1C(=O)CCS(=O)(=O)c1cc2c(cc1Cl)NC(=O)CO2 (configuration not stated) | inactive: -12%
36 | CC(=O)Nc1c(C)nn(-c2ccccc2)c1N1CCC(C(=O)Nc2ccccc2F)CC1 | inactive: -6.18%
37 | COc1ccc(NS(=O)(=O)c2ccc3[nH]c4c(c3c2)CCCCC4)cc1 | inactive: -15.2%
38 | COc1ccc(NC(=O)c2ccco2)cc1NC(=O)c1c(OC)cccc1OC | inactive: -8.91%
39 | CC(=O)c1ccc(N2CCN(C(=O)Nc3ccc(C(C)C)cc3)CC2)cc1 | inactive: 13.9%
40 | O=C(Nc1ccccc1)N(Cc1cccc(Cl)c1)c1ccccn1 | inactive: -7.96%
41 | COc1ccc(CCNC(=O)c2ccc3c(c2)ncn3-c2ccc(C(C)C)cc2)cc1OC | inactive: -15.9%
42 | CC(C)c1ccc2occ(CC(=O)N(Cc3ccc(F)cc3)C3CCS(=O)(=O)C3)c2c1 (configuration not stated) | inactive: -0.926%
43 | Cn1c2ccccc2c2cnn(CC(=O)NCCCN3CCN(c4ccccc4F)CC3)c(=O)c21 | inactive: -22.1%
44 | CCCCN1C[C@H](O)[C@@H](O)[C@H](O)[C@H]1CO | inactive: -14.2%
45 | CCOC(=O)c1c(S(=O)(=O)N2CCC(C(=O)Nc3ccc(F)cc3F)CC2)c(C)n(C)c1C | inactive: -18.9%
46 | COc1cccc(CCc2ccccc2OCC(CN(C)C)OC(=O)CCC(=O)O)c1 (configuration not stated) | inactive: -19%
47 | COc1ccc(CNC(=O)Cc2c(C)c3cc4c(C)coc4c(C)c3oc2=O)cc1OC | inactive: -6.59%
48 | COc1ccc(Cn2c(CO)cnc2SCc2ccccc2C)cc1 | inactive: -3.59%
49 | CCOc1ccc(CN2C(=O)c3ccccc3C2C(=O)NCCc2ccc(OC)c(OC)c2)cc1 (configuration not stated) | inactive: -9.62%
50 | COc1ccccc1NC(=O)C1=C(C)Nc2ncnn2C1c1cccn1C (configuration not stated) | inactive: -12.7%

Row | Structure (SMILES) | activation
51 | Cc1ccc(C)c(NC(=O)C2CCN(c3cc(C)nc4c(-c5ccc(Cl)cc5)c(C)nn34)CC2)c1 | inactive: -16.1%
52 | COc1ccc(-n2cc(C(=O)Oc3cc(C)cc(C)c3)c3ccccc3c2=O)cc1 | inactive: -0.538%
53 | COc1cccc(NC(=O)Cn2cc(C(=O)c3ccco3)c3ccccc32)c1 | inactive: -18.2%
54 | CCOc1ccc(CNS(=O)(=O)c2ccc3c(c2)CCCN3C(C)=O)cc1 | inactive: -11.7%
55 | CC(C)C(=O)Nc1ccc2nc(SCC(=O)N3CCc4ccccc43)sc2c1 | inactive: -1.06%
56 | COc1ccc(-c2csc3ncnc(Nc4cc(OC)cc(OC)c4)c23)cc1 | inactive: -19.2%
57 | c1ccc2c(c1)CCCC2C1=NCCN1 (configuration not stated) | inactive: -4.97%
58 | Cc1ccc(-n2c(SCC(=O)c3ccccc3)nc3c([nH]c4ccccc43)c2=O)cc1 | inactive: 3.45%
59 | COc1ccccc1CC(=O)Nc1ccc2nc(Nc3cccc(Cl)c3)cc(C)c2c1 | inactive: 0.749%
60 | CCC(=O)N1CCc2cc(S(=O)(=O)Nc3cc(C)ccc3OC)ccc21 | inactive: -20.2%
61 | O=C(CSc1ncc(S(=O)(=O)c2ccc(Br)cc2)c(=O)[nH]1)Nc1ccc2c(c1)OCCO2 | inactive: 0.29%
62 | CCCCC(Sc1nc2cc3c(cc2c(=O)n1CCCC(=O)NCc1ccc2c(c1)OCO2)OCO3)C(=O)OCC (configuration not stated) | inactive: -29.3%
63 | COc1cccc(NC(=O)Cn2c(=O)n(CCCCC(=O)NCc3ccccc3Cl)c(=O)c3ccccc32)c1 | inactive: 1.82%
64 | CCOc1ccccc1N1CCN(S(=O)(=O)c2ccc(C3CCCCC3)cc2)CC1 | inactive: -13.5%
65 | CC1CCN(C(=O)CSc2nc3ccccc3nc2Cc2ccccc2)CC1 | inactive: -18.2%
66 | CC(C)c1ccc(NC(=O)Cn2cc(S(=O)(=O)Cc3ccccc3Cl)c3ccccc32)cc1 | inactive: -32.9%
67 | Cc1cc(C)cc(NC(=O)c2cc(S(=O)(=O)N3CCc4ccccc43)cn2C)c1 | inactive: -7.19%
68 | O=C(Nc1ccc2oc(-c3cccc(F)c3)nc2c1)c1ccc2ccccc2c1 | inactive: -10.1%
69 | COc1ccccc1CNC(=O)c1ccc2c(c1)N(Cc1c(F)cccc1Cl)C(=O)CS2 | inactive: 7.9%
70 | Oc1ccc(NCc2ccc(OCc3ccccc3)cc2)cc1 | inactive: 4.82%
71 | Cc1cc(=O)oc2cc(OCC(=O)Nc3ccc(O)c(C(=O)O)c3)ccc12 | inactive: -6.71%
72 | CCOc1ccc(CC(=O)N2CCc3cc(OC)c(OC)cc3C2COc2ccc3c(C)cc(=O)oc3c2)cc1 (configuration not stated) | inactive: -11%
73 | CCCn1cnc2cc(NCc3ccc(OC)cc3OC)ccc21 | inactive: -13%
74 | Cc1cccc(Cn2c(SCc3ccc(C(=O)NC4CCCC4)cc3)nc3ccncc32)c1 | inactive: 0.915%
75 | CCN(CC)S(=O)(=O)c1ccc2c(c1)N(CC(=O)NCCCN1CCN(c3cc(Cl)ccc3C)CC1)C(=O)CO2 | inactive: -1.42%

Row | Structure (SMILES) | activation
76 | COc1ccc(CNC(=O)Cc2c(C)c3c(cc(C)c4c(C)c(C)oc43)oc2=O)cc1OC | inactive: -14.2%
77 | Cc1cccc(-c2noc(CNC(=O)c3ccccc3Br)n2)c1 | inactive: -12.3%
78 | Cc1ccc(NC(=O)c2sc(-n3nc(C)c(Cc4ccc5c(c4)OCO5)c3C)nc2C)cc1Cl | inactive: -3.39%
79 | CC(C)CNS(=O)(=O)c1ccc(N2CCCCS2(=O)=O)cc1 | inactive: -0.589%
80 | CCOc1ccc(NC(=O)CCc2c(C)nc3cc(-c4ccc(Cl)cc4)nn3c2C)cc1 | inactive: -17.2%
81 | CCCCCn1c(=O)[nH]c2cc(C(=O)NCc3ccccc3)ccc2c1=O | inactive: -15%
82 | Cc1ccc(CNC(=O)CS(=O)(=O)Cc2nc(-c3ccccc3C)oc2C)cc1 | inactive: -2.61%
83 | CCCOc1ccc(NC(=O)C(=O)NCCCN2CCOCC2)cc1 | inactive: -10.4%
84 | Cc1ccc(CNC(=O)c2cc3c(s2)-c2c(C)cccc2OC3)cc1 | inactive: -9.34%
85 | CCOC(=O)c1c(NC(C)=O)c2c3c(sc2n1Cc1nc(-c2ccccc2Cl)oc1C)CCCC3 | inactive: -17.5%
86 | Cc1cccc(NC(=O)C2CCN(c3cnccn3)CC2)c1 | inactive: -10.2%
87 | COc1ccc(Cn2c(=O)c3ccccc3n3c(-c4cccc(OC)c4OC)nnc23)cc1 | inactive: -16.4%
88 | COc1ccc(CC(=O)Nc2ccc3nc(N4CCCCC4)cc(C)c3c2)cc1 | inactive: -18%
89 | CC1CCN(S(=O)(=O)c2ccc3c(c2)oc(=O)n3CC(=O)O)CC1 | inactive: -12.6%
90 | CCOc1ncc(F)c(=O)[nH]1 | inactive: -20.2%
91 | CCC(=O)N1CCc2cc(Br)cc(S(=O)(=O)CCC(=O)Nc3cccc(C)c3C)c21 | inactive: -6.83%
92 | CCOCCCNC(=O)c1ccc(-n2c(-c3ccccc3)cc3c2CCCCC3)cc1 | inactive: 5.24%
93 | COc1ccc(CNCc2c(C(=O)O)n(Cc3ccc(F)cc3)c3cc(C)ccc23)cc1OC | inactive: 2.69%
94 | CC(C)OC(=O)C(C(=O)OC(C)C)=C1SC=CS1 | inactive: -19.1%
95 | Cc1ncc([N+](=O)[O-])n1C | inactive: -15.5%
96 | COc1ccc2c(c1)c1c(c(=O)n(Cc3ccccc3)c(=O)n1CC(=O)NCc1ccccc1)n2C | inactive: 0.5%
97 | Cc1cc(C)cc(NC(=O)N2CCN(c3cc(-c4noc(C)n4)ccc3C)CC2)c1 | inactive: -14.5%

From PubChem BioAssay AID1159614 (National Center for Advancing Translational Sciences (NCATS), 2016)
